# From the supplement of paper PMC4604168 (melanoma cell lines)
# The other results are listed elsewhere or left out. Repeats are few or missing, and single values can be far off.
# Test system: WM1716
# Assay: cell count relative to DMSO control; melanoma cells; higher = more viable cells
# Settings: library dose: standard library concentration; 72 h
# 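Also: cells treated in 1,536-well plates, then fixed and DAPI-stained, with nuclei counted from automated high-throughput microscope images.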
row,SMILES,cell count [%]
1,"CCN(CC)CCNC(=O)c1c(C)[nH]c(/C=C2\C(=O)Nc3ccc(F)cc32)c1C [sunitinib] + CCCCCCCCCCCC1=C(O)C(=O)C=C(O)C1=O [Embelin] (first compound 2 µM, partner dose 6 µM)",87.1
2,"C[C@]1(O)C[C@@H](c2nc(-c3ccc4ccc(-c5ccccc5)nc4c3)c3c(N)nccn32)C1 + O=C(Nc1ccccc1)c1cc([N+](=O)[O-])ccc1Cl [GW9662] (first compound 2 µM, partner dose 10 µM)",75
3,"COc1cc([C@@H]2c3cc4c(cc3[C@@H](O[C@@H]3O[C@@H]5CO[C@@H](C)O[C@H]5[C@H](O)[C@H]3O)[C@H]3COC(=O)[C@H]23)OCO4)cc(OC)c1O [etoposide] + CCc1ccc(CCOc2ccc(CC3SC(=O)NC3=O)cc2)nc1 [pioglitazone] (first compound 0.1 µM, partner dose 10 µM)",69.9
4,"C[C@]1(O)C[C@@H](c2nc(-c3ccc4ccc(-c5ccccc5)nc4c3)c3c(N)nccn32)C1 + O=c1cc(-c2cccc3c2Sc2ccccc2S3)oc(N2CCOCC2)c1 [KU55933] (first compound 2 µM, partner dose 5 µM)",85.1
5,"C[C@]1(O)C[C@@H](c2nc(-c3ccc4ccc(-c5ccccc5)nc4c3)c3c(N)nccn32)C1 + O=C1NC(=O)/C(=C/c2ccc(-c3ccc(F)cc3O)o2)S1 [AS252424] (first compound 2 µM, partner dose 5 µM)",86.9
